From the supplement of paper PMC8728848
The other results are listed elsewhere or left out.

Legend:
Experiment in all cases: glycan array binding signal (z-score within array); higher = stronger binding
Details in all cases: glycan notation: IUPAC condensed, linker removed
[1] = target: Neu5Ac(a2-3)Gal(b1-4)GlcNAc(b1-2)[Neu5Ac(a2-3)Gal(b1-4)GlcNAc(b1-4)]Man(a1-3)[GlcNAc(b1-4)][Neu5Ac(a2-3)Gal(b1-4)GlcNAc(b1-4)Man(a1-6)]Man(b1-4)GlcNAc(b1-4)GlcNAc
In short: (§1)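 The binding signal is a Z-score computed within each array. Data were drawn from 3228 arrays in the Consortium for Functional Glycomics database, restricted to those with a known protein sequence. Scores were averaged over arrays of the same protein sequence at different concentrations or buffers, and over linkers, and negative values can be taken as non-binding.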

[2] = target: Neu5Ac(a2-3)Gal(b1-4)GlcNAc(b1-2)[Neu5Ac(a2-3)Gal(b1-4)GlcNAc(b1-6)]Man(a1-6)[Neu5Ac(a2-3)Gal(b1-4)GlcNAc(b1-2)Man(a1-3)]Man(b1-4)GlcNAc(b1-4)GlcNAc
In short: as §1

[3] = target: Neu5Ac(a2-3)Gal(b1-4)GlcNAc(b1-2)[Neu5Ac(a2-3)Gal(b1-4)GlcNAc(b1-6)]Man(a1-6)[Neu5Ac(a2-3)Gal(b1-4)GlcNAc(b1-2)Man(a1-3)][GlcNAc(b1-4)]Man(b1-4)GlcNAc(b1-4)GlcNAc
In short: as §1

[4] = target: Neu5Ac(a2-3)Gal(b1-4)GlcNAc(b1-3)Gal
In short: as §1

[5] = target: Neu5Ac(a2-3)Gal(b1-4)GlcNAc(b1-3)Gal(b1-3)GlcNAc
In short: as §1

[6] = target: Neu5Ac(a2-3)Gal(b1-4)GlcNAc(b1-3)Gal(b1-4)GlcNAc
In short: as §1

[7] = target: Neu5Ac(a2-3)Gal(b1-4)GlcNAc(b1-3)Gal(b1-4)GlcNAc(b1-2)Man(a1-3)[Neu5Ac(a2-3)Gal(b1-4)GlcNAc(b1-3)Gal(b1-4)GlcNAc(b1-2)Man(a1-6)]Man(b1-4)GlcNAc(b1-4)GlcNAc
In short: as §1

[8] = target: Neu5Ac(a2-3)Gal(b1-4)GlcNAc(b1-3)Gal(b1-4)GlcNAc(b1-3)Gal(b1-4)GlcNAc
In short: as §1

[9] = target: Neu5Ac(a2-3)Gal(b1-4)GlcNAc(b1-3)Gal(b1-4)GlcNAc(b1-3)Gal(b1-4)GlcNAc(b1-2)Man(a1-3)[Neu5Ac(a2-3)Gal(b1-4)GlcNAc(b1-3)Gal(b1-4)GlcNAc(b1-3)Gal(b1-4)GlcNAc(b1-2)Man(a1-6)]GalNAc
In short: as §1

[10] = target: Neu5Ac(a2-3)Gal(b1-4)GlcNAc(b1-3)Gal(b1-4)GlcNAc(b1-3)GalNAc
In short: as §1

[11] = target: Neu5Ac(a2-3)Gal(b1-4)GlcNAc(b1-3)Gal(b1-4)GlcNAc(b1-3)[Neu5Ac(a2-3)Gal(b1-4)GlcNAc(b1-3)Gal(b1-4)GlcNAc(b1-6)]GalNAc
In short: as §1

[12] = target: Neu5Ac(a2-3)Gal(b1-4)GlcNAc(b1-3)Gal(b1-4)GlcNAc(b1-6)[Gal(b1-3)]GalNAc
In short: as §1

[13] = target: Neu5Ac(a2-3)Gal(b1-4)GlcNAc(b1-3)Gal(b1-4)[Fuc(a1-3)]GlcNAc
In short: as §1

[14] = target: Neu5Ac(a2-3)Gal(b1-4)GlcNAc(b1-3)GalNAc
In short: as §1

[15] = target: Neu5Ac(a2-3)Gal(b1-4)GlcNAc(b1-3)[Neu5Ac(a2-3)Gal(b1-4)GlcNAc(b1-6)]GalNAc
In short: as §1

[16] = target: Neu5Ac(a2-3)Gal(b1-4)GlcNAc(b1-6)GalNAc
In short: as §1

[17] = target: Neu5Ac(a2-3)Gal(b1-4)GlcNAc(b1-6)[Gal(b1-3)]GalNAc
In short: as §1

[18] = target: Neu5Ac(a2-3)Gal(b1-4)GlcNAc(b1-6)[Neu5Ac(a2-3)Gal(b1-3)]GalNAc
In short: as §1

[19] = target: Neu5Ac(a2-3)Gal(b1-4)GlcNAc6S
In short: as §1

[20] = target: Neu5Ac(a2-3)Gal(b1-4)[Fuc(a1-3)]GlcNAc
In short: as §1

[21] = target: Neu5Ac(a2-3)Gal(b1-4)[Fuc(a1-3)]GlcNAc(b1-2)Man
In short: as §1

[22] = target: Neu5Ac(a2-3)Gal(b1-4)[Fuc(a1-3)]GlcNAc(b1-3)Gal
In short: as §1

[23] = target: Neu5Ac(a2-3)Gal(b1-4)[Fuc(a1-3)]GlcNAc(b1-3)Gal(b1-4)GlcNAc
In short: as §1

[24] = target: Neu5Ac(a2-3)Gal(b1-4)[Fuc(a1-3)]GlcNAc(b1-3)Gal(b1-4)[Fuc(a1-3)]GlcNAc(b1-3)Gal(b1-4)[Fuc(a1-3)]GlcNAc
In short: as §1

[25] = target: Neu5Ac(a2-3)Gal(b1-4)[Fuc(a1-3)]GlcNAc(b1-3)GalNAc
In short: as §1

[26] = target: Neu5Ac(a2-3)Gal(b1-4)[Fuc(a1-3)]GlcNAc(b1-6)[Gal(b1-3)]GalNAc
In short: as §1

[27] = target: Neu5Ac(a2-3)Gal(b1-4)[Fuc(a1-3)]GlcNAc(b1-6)[Neu5Ac(a2-3)Gal(b1-3)]GalNAc
In short: as §1

[28] = target: Neu5Ac(a2-3)Gal(b1-4)[Fuc(a1-3)]GlcNAc6S
In short: as §1

[29] = target: Neu5Ac(a2-3)Gal6S(b1-4)GlcNAc
In short: as §1

[30] = target: Neu5Ac(a2-3)Gal6S(b1-4)[Fuc(a1-3)]GlcNAc
In short: as §1

Neu5Ac(a2-3)GalNAc = target: Neu5Ac(a2-3)GalNAc
In short: as §1

[31] = target: Neu5Ac(a2-3)GalNAc(b1-4)GlcNAc
In short: as §1

[32] = target: Neu5Ac(a2-3)[GalNAc(b1-4)]Gal(b1-4)Glc
In short: as §1

[33] = target: Neu5Ac(a2-3)[GalNAc(b1-4)]Gal(b1-4)GlcNAc
In short: as §1

[34] = target: Neu5Ac(a2-3)[GalNAc(b1-4)]Gal(b1-4)GlcNAc(b1-3)GalNAc
In short: as §1

[35] = target: Neu5Ac(a2-3)[Neu5Ac(a2-6)]GalNAc
In short: as §1

Neu5Ac(a2-6)Gal = target: Neu5Ac(a2-6)Gal
In short: as §1

B1: SP16664D-bth-476-27-476 (Bacteroides thetaiotaomicron) (protein)
chain: DDLEVGKNIDESAYSGIYENNAYLRDGKSNLVSKVVELHGETYATTVKMGLSKTPNTATSAKVKIDAAYLETYNKAHNTDFALYPQDLVTFANEGILTVNANTKSAEVEMTIRAGEGLQEDKTYAIPVAISDQSSDITIKDEDAKHCIYLVKDMRNAGDAYKGEGVMQGYLFFEVNDVNPLNTLSFQLENGKLLWDVVVLFAANINYDAEAGRPRVQCNPNVQYLLDNNETLLQPLRRRGVKVLLGLLGNHDITGLAQLSEQGAKDFAREVAQYCKAYNLDGVNYDDEYSNSPDLSNPSLTNPSTAAAARLCYETKQAMPDKLVTVFDWGQMYGVATVDGVDAKEWIDIVVANYGSAAYPIGQMTKKQCSGISMEFNLGGGGSLSASKAQSMIDGGYGWFMGFAPSPAKYGSVFSRLQGGGEVLYGSNVAAPTIFYKKNDPTPYKYPDDL
glycan array binding signal (z-score) [1]: -0.029
glycan array binding signal (z-score) [2]: -0.218
glycan array binding signal (z-score) [3]: 0.105
glycan array binding signal (z-score) [4]: -0.117
glycan array binding signal (z-score) [5]: -0.23
glycan array binding signal (z-score) [6]: -0.351
glycan array binding signal (z-score) [7]: -0.218
glycan array binding signal (z-score) [8]: -0.287
glycan array binding signal (z-score) [9]: 0.099
glycan array binding signal (z-score) [10]: -0.145
glycan array binding signal (z-score) [11]: -0.185
glycan array binding signal (z-score) [12]: -0.314
glycan array binding signal (z-score) [13]: 0.058
glycan array binding signal (z-score) [14]: -0.227
glycan array binding signal (z-score) [15]: -0.389
glycan array binding signal (z-score) [16]: -0.274
glycan array binding signal (z-score) [17]: -0.001
glycan array binding signal (z-score) [18]: -0.289
glycan array binding signal (z-score) [19]: -0.243
glycan array binding signal (z-score) [20]: -0.111
glycan array binding signal (z-score) [21]: -0.056
glycan array binding signal (z-score) [22]: -0.222
glycan array binding signal (z-score) [23]: -0.046
glycan array binding signal (z-score) [24]: -0.263
glycan array binding signal (z-score) [25]: 0.765
glycan array binding signal (z-score) [26]: 9.86
glycan array binding signal (z-score) [27]: 0.016
glycan array binding signal (z-score) [28]: 0.013
glycan array binding signal (z-score) [29]: -0.22
glycan array binding signal (z-score) [30]: -0.246
glycan array binding signal (z-score) (Neu5Ac(a2-3)GalNAc): -0.33
glycan array binding signal (z-score) [31]: -0.337
glycan array binding signal (z-score) [32]: 0.011
glycan array binding signal (z-score) [33]: -0.121
glycan array binding signal (z-score) [34]: 0.335
glycan array binding signal (z-score) [35]: 0.032
glycan array binding signal (z-score) (Neu5Ac(a2-6)Gal): -0.18
